{
  "source": "the supplement of paper PMC4604168 (melanoma cell lines)",
  "note": "The list shows a part of the results. Single values are uncertain, as repeats are few or missing.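 Further: cells treated in 1,536-well plates, then fixed and DAPI-stained, with nuclei counted from automated high-throughput microscope images.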",
  "data": [
    {"tested_on": "MeWo", "experiment": "cell count relative to DMSO control; melanoma cells; higher = more viable cells", "details": "library dose: standard library concentration; 72 h", "units": {"cell count": "%"}, "values": [
      {"smiles": "CCCS(=O)(=O)Nc1ccc(F)c(C(=O)c2c[nH]c3ncc(Cl)cc23)c1F", "note": "+ CCN(CC)CCCCNc1ncc2cc(-c3cc(OC)cc(OC)c3)c(NC(=O)NC(C)(C)C)nc2n1 [PD173074] (first compound 0.4 µM, partner dose 0.5 µM)", "cell count": 75.2},
      {"smiles": "CN(c1ncccc1CNc1nc(Nc2ccc3c(c2)CC(=O)N3)ncc1C(F)(F)F)S(C)(=O)=O", "note": "+ Cn1c(Nc2ccc(C(F)(F)F)cc2)nc2cc(Oc3ccnc(-c4ncc(C(F)(F)F)[nH]4)c3)ccc21 [CHIR265] (first compound 0.4 µM, partner dose 0.4 µM)", "cell count": 71.8},
      {"smiles": "C=C(c1ccc(C(=O)O)cc1)c1cc2c(cc1C)C(C)(C)CCC2(C)C", "note": "[Bexarotene] + CC(=O)c1c(C)c2cnc(Nc3ccc(N4CCNCC4)cn3)nc2n(C2CCCC2)c1=O [palbociclib] (first compound 10 µM, partner dose 0.2 µM)", "cell count": 47.5},
      {"smiles": "C=C(c1ccc(C(=O)O)cc1)c1cc2c(cc1C)C(C)(C)CCC2(C)C", "note": "[Bexarotene] + Cc1nc(Nc2ncc(C(=O)Nc3c(C)cccc3Cl)s2)cc(N2CCN(CCO)CC2)n1 [dasatanib] (first compound 10 µM, partner dose 0.02 µM)", "cell count": 91.1},
      {"smiles": "CCCS(=O)(=O)Nc1ccc(F)c(C(=O)c2c[nH]c3ncc(Cl)cc23)c1F", "note": "+ NCC(=O)Nc1ccc(-n2nc(C(F)(F)F)cc2-c2ccc3c(ccc4ccccc43)c2)cc1 [OSU03012] (first compound 0.4 µM, partner dose 5 µM)", "cell count": 88.8}
    ]}
  ]
}
